Reference: paper PMC9947638
Results are given in words; binding and its absence hold for the method and conditions named. For part of these data: Binding seen in cells or lysates may run through a third protein. Some binding calls cover weakened binding; strength is not graded here. For part of these data: Where a sequence is shown, tags or fusion partners need not be part of it.

Chains of the proteins cited; added tags and fusions are not shown. Lines headed by an entry give the natural chain unless they say otherwise; changes in a name come on top. Residues count along the entry.
UniProt P37198: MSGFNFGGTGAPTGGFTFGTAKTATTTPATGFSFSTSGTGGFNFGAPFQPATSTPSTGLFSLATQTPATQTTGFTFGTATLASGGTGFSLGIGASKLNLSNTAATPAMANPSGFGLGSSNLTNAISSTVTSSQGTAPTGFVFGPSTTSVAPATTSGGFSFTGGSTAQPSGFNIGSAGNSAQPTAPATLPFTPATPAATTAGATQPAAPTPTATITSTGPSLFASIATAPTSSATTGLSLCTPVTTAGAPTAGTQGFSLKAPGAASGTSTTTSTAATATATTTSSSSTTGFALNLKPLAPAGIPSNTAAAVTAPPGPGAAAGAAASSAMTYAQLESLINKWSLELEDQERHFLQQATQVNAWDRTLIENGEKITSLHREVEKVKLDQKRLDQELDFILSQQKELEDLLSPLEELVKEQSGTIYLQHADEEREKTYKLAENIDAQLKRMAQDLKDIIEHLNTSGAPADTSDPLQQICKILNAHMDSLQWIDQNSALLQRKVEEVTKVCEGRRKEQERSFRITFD
GST-Nup62-C1: residues 328-458 of P37198
UniProt Q04206: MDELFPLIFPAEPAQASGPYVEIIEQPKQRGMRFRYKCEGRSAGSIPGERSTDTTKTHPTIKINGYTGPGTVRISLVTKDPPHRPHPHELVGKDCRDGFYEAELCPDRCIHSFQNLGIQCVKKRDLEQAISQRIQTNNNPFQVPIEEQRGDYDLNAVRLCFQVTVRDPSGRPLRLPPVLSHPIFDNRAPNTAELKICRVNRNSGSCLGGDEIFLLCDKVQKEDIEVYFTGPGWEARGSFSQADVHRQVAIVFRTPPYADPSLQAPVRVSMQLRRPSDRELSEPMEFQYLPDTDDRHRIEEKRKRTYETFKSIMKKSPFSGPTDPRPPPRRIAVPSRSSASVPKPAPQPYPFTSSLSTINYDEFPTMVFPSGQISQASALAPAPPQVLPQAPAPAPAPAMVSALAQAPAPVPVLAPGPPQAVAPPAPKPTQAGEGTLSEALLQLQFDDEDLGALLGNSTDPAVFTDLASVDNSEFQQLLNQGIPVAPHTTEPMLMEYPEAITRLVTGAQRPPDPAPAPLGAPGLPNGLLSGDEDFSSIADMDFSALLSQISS

Columns and labels:
GST-Nup62-C1 = GST-Nup62-C1 (UniProt P37198); assay: pull-down; 20 µg GST fusion protein on glutathione beads, 500 µg HEK293T cell lysate (endogenous proteins or expressed GFP fusions), 1 h at 4 °C; wash buffer 20 mM Tris, 150 mM NaCl, 1 mM EDTA; western blot; only the target purified
GST-Nup88-C (human) [1] = molecular target: T1, GST-Nup88-C (human) (UniProt Q99567); assay: as above
T1 sequence: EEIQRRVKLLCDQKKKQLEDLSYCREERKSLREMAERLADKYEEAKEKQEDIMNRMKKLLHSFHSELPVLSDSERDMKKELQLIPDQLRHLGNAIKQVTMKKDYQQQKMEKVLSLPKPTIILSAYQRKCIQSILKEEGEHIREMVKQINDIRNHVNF

GST-Nup88-C (human) [2] = molecular target: T1, GST-Nup88-C (human); assay: pull-down; Figure S3: Nup88-C or PPL-C as bait; endogenous Nup62 and exogenously expressed GFP-Nup62-C1 as prey; methods not shown
GST-Nup88-C (human) [3] = molecular target: T1, GST-Nup88-C (human); assay: pull-down; GST fusion protein on glutathione beads, lysates of asynchronous and synchronized HeLa cells, 1 h at 4 °C; western blot; only the target purified
GFP-Nup88 (human) [4] = molecular target: T2, GFP-Nup88 (human) (UniProt Q99567); assay: pull-down; GBP pull-down of GFP-Nup88 from lysates of HeLa cells synchronized at G1/S and released for the indicated time intervals; blot for GFP and Nup62
T2 sequence: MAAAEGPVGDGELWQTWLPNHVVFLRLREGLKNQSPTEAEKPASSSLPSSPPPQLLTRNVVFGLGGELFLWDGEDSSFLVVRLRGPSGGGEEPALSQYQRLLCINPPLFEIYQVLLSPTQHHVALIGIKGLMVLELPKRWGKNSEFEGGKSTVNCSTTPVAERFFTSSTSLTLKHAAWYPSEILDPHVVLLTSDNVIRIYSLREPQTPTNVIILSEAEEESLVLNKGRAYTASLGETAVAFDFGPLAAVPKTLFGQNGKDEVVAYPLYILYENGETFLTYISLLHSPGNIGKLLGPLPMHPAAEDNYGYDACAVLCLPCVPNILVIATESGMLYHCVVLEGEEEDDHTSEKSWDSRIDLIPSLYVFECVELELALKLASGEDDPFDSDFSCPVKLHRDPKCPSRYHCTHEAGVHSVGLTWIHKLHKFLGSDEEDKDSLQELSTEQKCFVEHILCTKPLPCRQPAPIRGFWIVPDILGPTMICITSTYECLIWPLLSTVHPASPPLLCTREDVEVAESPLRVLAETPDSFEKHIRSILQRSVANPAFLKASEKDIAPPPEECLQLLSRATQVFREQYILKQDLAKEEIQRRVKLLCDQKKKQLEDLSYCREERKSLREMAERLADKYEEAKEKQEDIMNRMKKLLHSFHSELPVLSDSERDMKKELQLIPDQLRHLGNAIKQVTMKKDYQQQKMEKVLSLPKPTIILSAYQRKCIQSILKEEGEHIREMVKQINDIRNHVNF

GFP-Nup88 (human) [5] = molecular target: T2, GFP-Nup88 (human); assay: pull-down; GBP pull-down: lysates of HEK293T cells expressing GFP fusions incubated with GST-GBP at 4 °C 12 h, glutathione beads 4 h; blot for endogenous Nup62
GFP-Nup88-C (human) = molecular target: T3, GFP-Nup88-C (human) (UniProt Q99567); assay: as above
T3 sequence: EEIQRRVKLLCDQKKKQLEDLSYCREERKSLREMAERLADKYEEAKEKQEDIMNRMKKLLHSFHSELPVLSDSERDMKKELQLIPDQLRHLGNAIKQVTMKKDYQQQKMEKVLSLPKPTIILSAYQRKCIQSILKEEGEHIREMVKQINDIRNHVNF

GFP-Nup88-delC (human) = molecular target: T4, GFP-Nup88-delC (human) (UniProt Q99567); assay: as above
T4 sequence: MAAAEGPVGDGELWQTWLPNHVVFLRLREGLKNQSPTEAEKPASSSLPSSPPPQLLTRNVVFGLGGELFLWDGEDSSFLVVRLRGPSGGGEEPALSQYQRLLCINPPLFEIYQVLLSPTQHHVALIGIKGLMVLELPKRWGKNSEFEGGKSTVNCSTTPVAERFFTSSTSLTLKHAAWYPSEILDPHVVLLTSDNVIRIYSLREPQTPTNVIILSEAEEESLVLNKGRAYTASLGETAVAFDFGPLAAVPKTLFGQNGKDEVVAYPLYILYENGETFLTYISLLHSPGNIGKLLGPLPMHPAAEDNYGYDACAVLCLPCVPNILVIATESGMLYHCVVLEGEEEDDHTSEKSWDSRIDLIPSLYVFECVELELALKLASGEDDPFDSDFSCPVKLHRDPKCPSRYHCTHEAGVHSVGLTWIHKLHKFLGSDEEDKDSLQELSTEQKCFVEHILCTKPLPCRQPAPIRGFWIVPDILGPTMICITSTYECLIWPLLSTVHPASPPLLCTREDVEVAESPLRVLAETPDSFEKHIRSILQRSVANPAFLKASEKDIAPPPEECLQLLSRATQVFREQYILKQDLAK

[6] = molecular target: T5, Nup88-C, GAL4 DNA binding domain construct (pGBDU) (human) (UniProt Q99567); assay: two-hybrid; yeast strain PJ69-4A, pGBDU (DNA binding domain) and pGAD (activation domain) constructs; growth on medium lacking Leu, Ura and His, 30 °C, three days
T5 sequence: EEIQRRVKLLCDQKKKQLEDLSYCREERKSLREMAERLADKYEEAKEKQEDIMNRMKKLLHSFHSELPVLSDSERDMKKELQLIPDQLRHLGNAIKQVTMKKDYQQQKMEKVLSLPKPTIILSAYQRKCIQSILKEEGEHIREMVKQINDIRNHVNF

For “NF-κB (p65), endogenous (from UniProt Q04206 1-551)”, the binding (GST-Nup62-C1) was “no binding” and the binding (GST-Nup88-C (human) [1]) was “no binding”.

In the case of “GFP-Nup62-C1 (from UniProt P37198 328-458) (domain or fragment)”, the binding (GST-Nup88-C (human) [1]) is reported as “binds” and the binding (GST-Nup88-C (human) [2]) is reported as “binds”.

For “endogenous Nup62 (from UniProt P37198 1-522)”, the binding (GST-Nup88-C (human) [1]) was “binds”, the binding (GST-Nup88-C (human) [3]) was “binds” and the binding (GFP-Nup88 (human) [4]) was “binds”. For the same molecule, the binding (GFP-Nup88 (human) [5]) was “binds”, the binding (GFP-Nup88-C (human)) was “binds” and the binding (GFP-Nup88-delC (human)) was “no binding”. The binding (GST-Nup88-C (human) [2]) was “binds”.

With GFP-Nup62 (from UniProt P37198 1-522) the binding (GST-Nup88-C (human) [1]) was “binds”.

With “Nup62-C1, GAL4 activation domain construct (pGAD) (from UniProt P37198 328-458) (domain or fragment)” the binding [6] was “binds”.

B1: GFP-Nup88-C (domain or fragment, UniProt Q99567 585-741)
chain: EEIQRRVKLLCDQKKKQLEDLSYCREERKSLREMAERLADKYEEAKEKQEDIMNRMKKLLHSFHSELPVLSDSERDMKKELQLIPDQLRHLGNAIKQVTMKKDYQQQKMEKVLSLPKPTIILSAYQRKCIQSILKEEGEHIREMVKQINDIRNHVNF
B1 was tested, and the binding (GST-Nup62-C1) was “binds”.

B2: GFP-Nup88-delC (domain or fragment, UniProt Q99567 1-584)
chain: MAAAEGPVGDGELWQTWLPNHVVFLRLREGLKNQSPTEAEKPASSSLPSSPPPQLLTRNVVFGLGGELFLWDGEDSSFLVVRLRGPSGGGEEPALSQYQRLLCINPPLFEIYQVLLSPTQHHVALIGIKGLMVLELPKRWGKNSEFEGGKSTVNCSTTPVAERFFTSSTSLTLKHAAWYPSEILDPHVVLLTSDNVIRIYSLREPQTPTNVIILSEAEEESLVLNKGRAYTASLGETAVAFDFGPLAAVPKTLFGQNGKDEVVAYPLYILYENGETFLTYISLLHSPGNIGKLLGPLPMHPAAEDNYGYDACAVLCLPCVPNILVIATESGMLYHCVVLEGEEEDDHTSEKSWDSRIDLIPSLYVFECVELELALKLASGEDDPFDSDFSCPVKLHRDPKCPSRYHCTHEAGVHSVGLTWIHKLHKFLGSDEEDKDSLQELSTEQKCFVEHILCTKPLPCRQPAPIRGFWIVPDILGPTMICITSTYECLIWPLLSTVHPASPPLLCTREDVEVAESPLRVLAETPDSFEKHIRSILQRSVANPAFLKASEKDIAPPPEECLQLLSRATQVFREQYILKQDLAK
In the case of B2, the binding (GST-Nup62-C1) is reported as “no binding”.
